# Experimental data taken from PubChem BioAssay AID1963576 (National Center for Advancing Translational Sciences (NCATS), 2024).
# Out of some 46,000 compounds screened, about 60 (0.1%) were called active. Not shown: some 3% with an inconclusive outcome. Calls follow the shape of the dose curve; as a rule, active = well fitted inhibition curve with a large enough effect; inconclusive = small, poorly fitted or top-dose-only effect; inactive = no such curve, though single readings can be large or run the other way. This is one part of the list.
# Experiment: Primary qHTS assay for Inhibitors of ovarian cancer metastasis using an organotypic tumor microenvironment (TME) model. Also: nearly all actives have a fitted effect of over 65% in size.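 As to activity change, negative = inhibition: plate controls were DMSO wells for no effect and tomatine positive control wells for full effect.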
# Conditions: SKOV3ip1-GFP adhesion/invasion on 3D omental model, fluorescence; series mostly up to 45.8 µM; activity change, negative = inhibition: at the top concentration
# Outline: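 A 3D layer of primary human omental fibroblasts, mesothelial cells, fibronectin and collagen I, grown 48 hr, received SKOV3ip1-GFP cells in serum-free medium plus compounds at 0.36-46 umol/L. After 2 hr RT and 16 hr 37 C, fixed adherent GFP cells were counted; normalized to DMSO and tomatine.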
SMILES,"activity change, negative = inhibition",outcome
CCOC(=O)N1CCC(NC(=O)c2cnn(-c3ccc(C)cc3)c2-n2cccc2)CC1,inactive: -1.1%,
Cc1cccc(-c2nc3cc(NC(=O)c4ccc(OCC(C)C)cc4)ccc3o2)c1,,inactive
CCOc1ccc(NC(=O)Cn2cc(C(=O)c3ccc(F)cc3)c(=O)c3cc4c(cc32)OCO4)cc1,inactive: 21.5%,
COc1ccc(-c2nc3ccccc3n2Cc2ccc(C(C)C)cc2)cc1,,inactive
Cc1ccccc1NC(=O)C1CCN(C(=O)c2ccc(F)cc2)CC1,inactive: 10.5%,
Cc1cccc(-c2noc(CNC(=O)c3ccco3)n2)c1,inactive: 3.9%,
Clc1cccc(N2CCN(c3ncnc4c3nc3n4CCCC3)CC2)c1,,inactive
CCOC(=O)c1ccc(NC(=O)C2Cc3ccccc3C(=O)O2)cc1 (stereo not drawn),inactive: 22.9%,
COc1ccccc1-c1nn2c(=O)cc(CN3CCN(S(=O)(=O)c4ccc(C)cc4)CC3)nc2s1,inactive: 3.18%,
Cc1ccc(-n2nnnc2CNC(=O)c2ccc(F)cc2)cc1C,inactive: 14.6%,
COc1cccc2cc(-c3cn4c(n3)sc3cc(F)ccc34)c(=O)oc12,,inactive
COC(=O)c1cc2oc3ccccc3c2n1CC(=O)Nc1cc(OC)cc(OC)c1,,inactive
CC(=O)Nc1ccc(C)cc1-c1nc2ccccc2n(CC(=O)c2ccc(Cl)cc2)c1=O,inactive: 18.3%,
Cc1cc(C)c(NC(=O)Cn2c(=O)n(CCc3ccccc3)c(=O)c3ccccc32)c(C)c1,,inactive
COc1ccc(OC)c(CNC(=O)c2ccccc2NC(=O)c2nsc3ccccc23)c1,inactive: 2.31%,
Clc1ccc(COC(Cn2ccnc2)c2ccc(Cl)cc2Cl)c(Cl)c1 (stereo not drawn),inactive: -8.68%,
Cc1ccc(N2CCn3c2nc2c3c(=O)n(CCCc3ccccc3)c(=O)n2C)cc1,inactive: -0.911%,
Cc1c(Cl)cccc1NC(=O)Cn1nc(C(F)(F)F)c2c1CCC2,inactive: 1.53%,
Cc1ccc(CNC(=O)NC2COc3ccccc3C2)cc1 (stereo not drawn),inactive: 10.8%,
Cc1ccc(C2=Nc3ccccc3N(CC(=O)Nc3ccccc3C)C(=O)C2)cc1C,inactive: 1.38%,
CCOc1ccccc1C(=O)N1CCN(CCc2ccccn2)CC1,inactive: -4.62%,
CCN1CCOC(=O)C1CC(=O)Nc1cccc(OC)c1 (stereo not drawn),inactive: 2.85%,
CC1=C(C(=O)Nc2ccccc2)C(c2cccc(O)c2)n2nc(-c3ccccc3Cl)nc2N1 (stereo not drawn),inactive: 6.58%,
Cn1cc(S(=O)(=O)N2CCCCCC2)cc1C(=O)NCc1ccc(Cl)cc1,,inactive

SMILES,"activity change, negative = inhibition",outcome
Cc1onc(-c2ccccc2Cl)c1C(=O)Oc1ccc(Br)cc1,inactive: 3.19%,
Cc1ccc(NC(=O)C2CCCN(S(=O)(=O)c3cccc4cccnc34)C2)c(Br)c1 (stereo not drawn),inactive: 5.9%,
COc1ccc(CCNC(=O)c2c(C)oc3nc(C)nc(N4CCOCC4)c23)cc1OC,inactive: -3.63%,
Cc1cc(C)n(-c2nc3ccccc3nc2Nc2cccc(C(=O)NCCc3ccccc3)c2)n1,inactive: 6.68%,
CC(C)CC(=O)NCC(c1ccc2c(c1)OCO2)N1CCN(c2ccccc2F)CC1 (stereo not drawn),inactive: 3.12%,
CCN(c1ccc(OC)cc1)S(=O)(=O)c1nnc(NC(=O)COc2ccc(F)cc2)s1,,inactive
Cc1ccccc1N(C)C(=O)c1noc2c1COc1ccccc1-2,inactive: -9.21%,
Cc1cccc(-c2nc(SCC(=O)NCC3CCCO3)c3c(=O)n(C)c(=O)n(C)c3n2)c1 (stereo not drawn),inactive: -4.75%,
CCC(=O)Nc1ccc(C)cc1-c1nc2ccccc2n(C(C)C(=O)Nc2ccccc2CC)c1=O (stereo not drawn),inactive: 1.79%,
CCC(CC)C(=O)Nc1ccc(C(=O)OCc2cc(=O)n3nc(C4CC4)sc3n2)cc1,inactive: -4.2%,
CCOc1ccc(-c2noc(CSc3nnc(-c4ccccc4)n3-c3ccccc3)n2)cc1,inactive: -11.9%,
O=C(CCn1c(=O)c2cccn2c2cccnc21)NCc1ccccc1Br,inactive: -0.939%,
CC(=O)c1ccccc1NS(=O)(=O)c1cc2c(cc1C)NC(=O)CO2,inactive: -18.3%,
CCN(CC)CCCNC(=O)CCCn1c(=O)[nH]c2ccc(Br)cc2c1=O,inactive: -20.6%,
O=C(NCc1ccccc1Cl)c1cccn1-c1nnc(N2CCCCC2)s1,inactive: 31.7%,
Cc1ccc(N(C)S(=O)(=O)c2ccc3c(c2)C(C)(C)C(=O)N3C)cc1C,,inactive
CCC(C(=O)N1CCN(c2cc(Cl)ccc2C)CC1)n1nc(C)c2sc3ccccc3c2c1=O (stereo not drawn),,inactive
COc1cccc(CNC(=O)CN2N=C(c3ccc(C)cc3)CCC2=O)c1,inactive: -1.96%,
Cc1ccc(-n2nc(C(=O)N3CCN(c4ccccc4F)CC3)c3c4ccccc4n(C)c3c2=O)cc1,inactive: -8.36%,
CC(C)CCNC(=O)c1ccc(Cn2c(SCC(=O)NC(C)C)nc3ccccc3c2=O)cc1,,inactive
CC1C(=O)Nc2ccc(S(=O)(=O)Nc3ccccc3Br)cc2NC1=O (stereo not drawn),inactive: -7.66%,
COc1cc(Cl)ccc1OC(=O)c1cn(-c2ccccc2OC)c(=O)c2ccccc12,inactive: 3.85%,
CCC(=O)NC[C@H](Cc1ccc(OCCc2nc(-c3ccccc3)oc2C)cc1)NC(C)=CC(=O)c1ccc(C(F)(F)F)cc1,inactive: -14.4%,
Cc1ccc(Cl)cc1N1CCN(C(=O)c2cccn2-c2nnc(N3CCCCC3)s2)CC1,,inactive
